# From paper PMC6656915, “The MmpL3 interactome reveals a complex crosstalk between cell envelope biosynthesis and cell elongation and division in mycobacteria” (Scientific Reports, 2019)
# No constants are given. Whether binding was seen depends on the method and setting. For some of these results: Binding seen in cells or lysates may run through a third protein. Some results given as binding are weak or reduced against the parent protein; the word gives no strength. For some of these results: Where a sequence is shown, tags or fusion partners need not be part of it.
# T1: MmpL3 (full-size), T18/T25 fusion (M. tuberculosis) (UniProt P9WJV5)
# T1 sequence: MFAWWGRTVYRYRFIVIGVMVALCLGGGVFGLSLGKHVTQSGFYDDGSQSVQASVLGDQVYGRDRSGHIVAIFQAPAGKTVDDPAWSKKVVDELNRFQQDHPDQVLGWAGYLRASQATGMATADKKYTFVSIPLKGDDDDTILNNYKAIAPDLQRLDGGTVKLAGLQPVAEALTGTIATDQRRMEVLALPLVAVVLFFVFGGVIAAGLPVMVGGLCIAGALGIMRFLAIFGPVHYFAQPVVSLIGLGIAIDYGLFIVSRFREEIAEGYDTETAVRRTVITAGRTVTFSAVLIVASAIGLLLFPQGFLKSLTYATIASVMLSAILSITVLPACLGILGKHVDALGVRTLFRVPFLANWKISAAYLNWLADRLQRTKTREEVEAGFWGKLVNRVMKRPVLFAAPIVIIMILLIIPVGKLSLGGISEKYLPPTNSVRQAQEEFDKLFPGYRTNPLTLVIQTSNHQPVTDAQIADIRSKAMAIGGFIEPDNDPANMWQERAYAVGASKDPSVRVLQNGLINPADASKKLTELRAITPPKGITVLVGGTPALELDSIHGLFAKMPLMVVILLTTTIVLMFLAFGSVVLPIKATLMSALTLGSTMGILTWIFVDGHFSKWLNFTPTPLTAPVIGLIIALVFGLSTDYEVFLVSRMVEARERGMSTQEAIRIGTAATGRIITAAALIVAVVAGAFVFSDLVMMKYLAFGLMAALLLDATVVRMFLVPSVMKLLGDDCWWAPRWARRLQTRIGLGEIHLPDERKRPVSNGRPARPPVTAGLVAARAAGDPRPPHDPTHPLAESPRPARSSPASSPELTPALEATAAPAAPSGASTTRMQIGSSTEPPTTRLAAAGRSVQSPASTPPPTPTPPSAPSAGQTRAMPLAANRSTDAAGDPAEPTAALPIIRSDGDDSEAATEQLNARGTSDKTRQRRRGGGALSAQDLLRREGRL
# T2: MmpL3tb-GFP tagged with hexahistidine at the C-terminal end (M. tuberculosis) (UniProt P9WJV5)
# T2 sequence: T1 sequence
# T3: CrgA, T18/T25 fusion (M. tuberculosis) (UniProt P9WP57)
# T3 sequence: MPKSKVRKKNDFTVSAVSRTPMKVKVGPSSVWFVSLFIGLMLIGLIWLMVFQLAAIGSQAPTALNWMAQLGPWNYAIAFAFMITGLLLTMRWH
# B1: CrgA from M. tuberculosis H37Rv N-terminally tagged with a FLAG epitope (protein, UniProt P9WP57 1-93)
# chain: T3 sequence
# B2: CrgA-FLAG (CrgA N-terminally tagged with a FLAG epitope) (protein, UniProt P9WP57 1-93)
# chain: T3 sequence
# B3: Wag31, T18/T25 fusion (protein, UniProt P9WMU1 1-260)
# chain: MPLTPADVHNVAFSKPPIGKRGYNEDEVDAFLDLVENELTRLIEENSDLRQRINELDQELAAGGGAGVTPQATQAIPAYEPEPGKPAPAAVSAGMNEEQALKAARVLSLAQDTADRLTNTAKAESDKMLADARANAEQILGEARHTADATVAEARQRADAMLADAQSRSEAQLRQAQEKADALQADAERKHSEIMGTINQQRAVLEGRLEQLRTFEREYRTRLKTYLESQLEELGQRGSAAPVDSNADAGGFDQFNRGKN
# Assays:
# [1] = biological target: T1, MmpL3 (full-size), T18/T25 fusion (M. tuberculosis); assay: two-hybrid
# [2] = biological target: MmpL3tb^1–744, T18/T25 fusion (M. tuberculosis) (UniProt P9WJV5); assay: two-hybrid
# [3] = biological target: Rv0227c, T18/T25 fusion (M. tuberculosis) (UniProt P96409); assay: two-hybrid
# [4] = biological target: Rv0204c, T18/T25 fusion (M. tuberculosis) (UniProt I6Y748); assay: two-hybrid
# [5] = biological target: T2, MmpL3tb-GFP tagged with hexahistidine at the C-terminal end (M. tuberculosis); assay: cross-linking + pull-down
# [6] = biological target: T2, MmpL3tb-GFP tagged with hexahistidine at the C-terminal end (M. tuberculosis); assay: co-IP
# [7] = biological target: T3, CrgA, T18/T25 fusion (M. tuberculosis); assay: two-hybrid
molecule,measurement,setting,value
"AftD (M. tuberculosis), T18/T25 fusion (from UniProt P96419 1-1400)",binding,[1],binds
same,binding,[2],binds
same,binding,[3],binds
"MmpL11, T18/T25 fusion (from UniProt P9WJT9 1-966)",binding,[4],binds
B1,binding,[5],binds
B2,binding,[6],binds
B3,binding,[7],binds
